This note sets out measurements from PMC7819943, “Rice protein-binding microarrays: a tool to detect cis-acting elements near promoter regions in rice”.

The list shows a part of the results.

For the experiment, the target named is T1, OsWOX13 (Oryza sativa, UniProt Q5QMM3 1-267).
T1 sequence: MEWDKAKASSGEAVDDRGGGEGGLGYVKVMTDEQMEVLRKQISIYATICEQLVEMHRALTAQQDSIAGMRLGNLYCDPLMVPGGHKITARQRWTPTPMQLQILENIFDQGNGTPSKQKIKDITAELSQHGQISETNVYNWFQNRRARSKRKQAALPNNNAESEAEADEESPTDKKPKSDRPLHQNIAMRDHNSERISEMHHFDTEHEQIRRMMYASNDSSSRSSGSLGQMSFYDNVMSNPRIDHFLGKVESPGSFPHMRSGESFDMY
The experiment in a line: protein-binding microarray (RPBM); PBS, 2% BSA, 51.3 ng/ul salmon testes DNA, 50 uM zinc acetate, 200 nM TF, 25 C, 1 h; high values mean tight binding. The note with it: protein: recombinant; tags: N-terminal polyhistidine and DsRed monomer fusion (pET32a); label: CyDye5-dUTP incorporated in the synthesized complementary strand; 3' TTTTT single-stranded linker to array surface; dsDNA, one strand shown. The procedure, abridged:
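Per-feature fluorescence intensity (arbitrary units), read on an Axon 4000B scanner, is the binding signal. Transcription factors carrying an N-terminal polyhistidine tag and DsRed fusion were expressed in E. coli BL21-CodonPlus and purified on Ni–NTA. A custom Agilent array, made double-stranded by primer extension with Cy5-dUTP and blocked with 2% BSA, was incubated with 200 nM protein in PBS, 2% BSA, salmon testes DNA and 50 µM zinc acetate at 25 °C for 1 h and then washed.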
For “TTTACAATGTTAGATTTGATGGGCAGTTGAGGTAGCCACGCGGAGTCACCTAGTGCAG”, the binding signal is 4970 fluorescence intensity (a.u.).

Consider “TGCATTATGCACATGATTGAGGGAAGAAATGTGGATCTTTCGGAGTCACCTAGTGCAG”, for which the binding signal is 16500 fluorescence intensity (a.u.).

Take “TAGATAGATTTCCATTATCGAAAAGAAAAGGAATTGTCTGCGGAGTCACCTAGTGCAG”: the binding signal is 4190 fluorescence intensity (a.u.).

As for “TTAAATTGGTTCAATTGATGTCGACGTTACTATATTTTACCGGAGTCACCTAGTGCAG”, the binding signal was 41200 fluorescence intensity (a.u.).

As to “TTCCTCTTAATCACATATACAAAGTGCTTTGATTAAAGAACGGAGTCACCTAGTGCAG”, the binding signal was 4660 fluorescence intensity (a.u.).

As to “TTAGATTGGCTATAGATGAATTGGAGCTAATAATTGGCTACGGAGTCACCTAGTGCAG”, the binding signal was 43500 fluorescence intensity (a.u.).

On to “AAAATATCCCTGATTTGTATGAGCGGCGGTGGTGCAGTGGCGGAGTCACCTAGTGCAG”, for which the binding signal is 4280 fluorescence intensity (a.u.).

As for “ACGATAATTCTCCAATCCTAATACAACTACAGTATGATATCGGAGTCACCTAGTGCAG”, the binding signal is 3560 fluorescence intensity (a.u.).

“AACTAATTGTTTCTTCAGACTTCTTCAGAGCATTCTCCAGCGGAGTCACCTAGTGCAG”: the binding signal was 36800 fluorescence intensity (a.u.).

As to “CGAATTGATGACCGAATTTCTCGGTCTCGGTCTTTTCAGTCGGAGTCACCTAGTGCAG”, the binding signal is 14700 fluorescence intensity (a.u.).

For “ATCTTGACAAATATTATCTCAATAACAGGTCACTGAGATGCGGAGTCACCTAGTGCAG”, the binding signal is 4840 fluorescence intensity (a.u.).

Take “GATCAATCACAGAGCAAAGCAGCCATTCCTCACGTCACGTCGGAGTCACCTAGTGCAG”: the binding signal is 19500 fluorescence intensity (a.u.).

“AACAGCTCAATTAATTAATCGCCCACACCGAAGCGCGCACCGGAGTCACCTAGTGCAG”: the binding signal is 18600 fluorescence intensity (a.u.).

With “TATCATCTATATCTCAAATTGACACATCCCCTCTAGGATCCGGAGTCACCTAGTGCAG”, the binding signal is 5880 fluorescence intensity (a.u.).

“TTTGACAGAAACCCAACATAACCATGGAAGTTCTACTAACCGGAGTCACCTAGTGCAG”: the binding signal is 7120 fluorescence intensity (a.u.).

Take “GTTCGAGTAATTTACGGTCCATGACAGGCAGGCAAAGTTACGGAGTCACCTAGTGCAG”: the binding signal was 7520 fluorescence intensity (a.u.).

Turning to “CATCATCTCTAATTTTAATCAAAATATAAACTTTGCAGTGCGGAGTCACCTAGTGCAG”, the binding signal is 9140 fluorescence intensity (a.u.).

“ATATGTTAGATAGATATATAGATAGATAGATACACTATCTCGGAGTCACCTAGTGCAG”: the binding signal is 8740 fluorescence intensity (a.u.).

Turning to “CAAATTAACAACCTGTCATGCAAATGATCACCAAATCCGTCGGAGTCACCTAGTGCAG”, the binding signal is 23000 fluorescence intensity (a.u.).

“CTAGTGATTAGCGGCTGCATGCAAGCATTTAGTTGGATGTCGGAGTCACCTAGTGCAG”: the binding signal was 22000 fluorescence intensity (a.u.).

In the case of “ACTATGGTTTAAATTGACGTCTATGAATACCACACATACGCGGAGTCACCTAGTGCAG”, the binding signal was 12000 fluorescence intensity (a.u.).

As for “CAAATAATTTAGGTTAACGACTCCAGTCAAAGCAAGTGAACGGAGTCACCTAGTGCAG”, the binding signal was 16000 fluorescence intensity (a.u.).

Turning to “TTTAATTGCAAGCTTTGTATATGCCTACTTTACTTGCCATCGGAGTCACCTAGTGCAG”, the binding signal is 29900 fluorescence intensity (a.u.).

“TCCTTCCTCTAATCACCCATCCATTCGCCATCATTGCTTCCGGAGTCACCTAGTGCAG”: the binding signal was 3340 fluorescence intensity (a.u.).

For the sequence “TGCACTTGATTAGTACAGGAGTTAACTGCATCTACGACTCCGGAGTCACCTAGTGCAG”, the binding signal was 6960 fluorescence intensity (a.u.).

As to “TACACAGATTGCGTGTAAATTGCAAGACAAATCTTTTAAGCGGAGTCACCTAGTGCAG”, the binding signal is 7580 fluorescence intensity (a.u.).

Regarding “GAGAATCATAAAATTGACATATGTTAGTTGTAATGGAAATCGGAGTCACCTAGTGCAG”, the binding signal was 8450 fluorescence intensity (a.u.).

Take “ATCGATTGAAATTTCGATGGTTTCATTCGGAATTTCGTCACGGAGTCACCTAGTGCAG”: the binding signal was 14600 fluorescence intensity (a.u.).

As to “ATTAACATAATTAATTCCAATCTATCCATCCCGTCGTCAACGGAGTCACCTAGTGCAG”, the binding signal was 42200 fluorescence intensity (a.u.).

In the case of “CAATGGACTGGTTATTAATTGTTACTACTACTATTGAACTCGGAGTCACCTAGTGCAG”, the binding signal was 4640 fluorescence intensity (a.u.).

Take “GTGATATAAAATGCCTGTCAGTTAACTACATAAGTAACTTCGGAGTCACCTAGTGCAG”: the binding signal was 6010 fluorescence intensity (a.u.).

For the sequence “ACATTGATAGCATTTGTCAAACCTCATTCATAGATACCGTCGGAGTCACCTAGTGCAG”, the binding signal is 18000 fluorescence intensity (a.u.).

“TATTAACGTTACAATAAATTGAAATATATATTACTAATGTCGGAGTCACCTAGTGCAG”: the binding signal was 17500 fluorescence intensity (a.u.).

With “TATATATGAGCTATTAGATTGGCTATGGATGAATTGGAGCCGGAGTCACCTAGTGCAG”, the binding signal is 4900 fluorescence intensity (a.u.).

Turning to “ATCAAAATAGAGTTAGTCATCAATTAGCAAATATCGCTCGCGGAGTCACCTAGTGCAG”, the binding signal was 6570 fluorescence intensity (a.u.).

With “ATGTGTCCAATCATAACCCGATTTCGTTGTCAATCTGTGCCGGAGTCACCTAGTGCAG”, the binding signal was 9490 fluorescence intensity (a.u.).

On to “GAGCAGATAATAATCAATCGCACCAACAGCGCTAGCTAGCCGGAGTCACCTAGTGCAG”, for which the binding signal was 4620 fluorescence intensity (a.u.).

Take “GCATATCAGCCCATTGATTTGCCTATTCTATGAGTAGAAACGGAGTCACCTAGTGCAG”: the binding signal is 4050 fluorescence intensity (a.u.).

For the sequence “AACAACTTATGACCATGTCAATCTATATAGTTAGAAGTTGCGGAGTCACCTAGTGCAG”, the binding signal was 3670 fluorescence intensity (a.u.).

Consider “CCCAATAATAAAATTTGCATATATTGTCACGTGTCACATGCGGAGTCACCTAGTGCAG”, for which the binding signal was 5760 fluorescence intensity (a.u.).

With “ATAATTATTATAATATAAGTTAAATTTTATTTGTTAAAATCGGAGTCACCTAGTGCAG”, the binding signal is 5350 fluorescence intensity (a.u.).

Consider “AAATCCCCAATTAATTGATGATTAATTGTGAGCTTAATATCGGAGTCACCTAGTGCAG”, for which the binding signal was 47900 fluorescence intensity (a.u.).
